The values below come from paper PMC4336329 (PLoS ONE, 2015).

Out of some 310,000 compounds screened, about 14,000 (4.5%) showed an effect of 50% or more. Effects have a minus sign here. The list shows a part of the results.
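Also: peak tail current of the secondary pulse compared with the same well before compound.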

The target in the test is human ether-à-go-go-related gene (hERG) potassium channel (human, UniProt Q12809). Kind of test: primary screen, population patch clamp on CHO cells stably expressing hERG.
human ether-à-go-go-related gene (hERG) potassium channel, sequence (Q12809 whole entry, looked up): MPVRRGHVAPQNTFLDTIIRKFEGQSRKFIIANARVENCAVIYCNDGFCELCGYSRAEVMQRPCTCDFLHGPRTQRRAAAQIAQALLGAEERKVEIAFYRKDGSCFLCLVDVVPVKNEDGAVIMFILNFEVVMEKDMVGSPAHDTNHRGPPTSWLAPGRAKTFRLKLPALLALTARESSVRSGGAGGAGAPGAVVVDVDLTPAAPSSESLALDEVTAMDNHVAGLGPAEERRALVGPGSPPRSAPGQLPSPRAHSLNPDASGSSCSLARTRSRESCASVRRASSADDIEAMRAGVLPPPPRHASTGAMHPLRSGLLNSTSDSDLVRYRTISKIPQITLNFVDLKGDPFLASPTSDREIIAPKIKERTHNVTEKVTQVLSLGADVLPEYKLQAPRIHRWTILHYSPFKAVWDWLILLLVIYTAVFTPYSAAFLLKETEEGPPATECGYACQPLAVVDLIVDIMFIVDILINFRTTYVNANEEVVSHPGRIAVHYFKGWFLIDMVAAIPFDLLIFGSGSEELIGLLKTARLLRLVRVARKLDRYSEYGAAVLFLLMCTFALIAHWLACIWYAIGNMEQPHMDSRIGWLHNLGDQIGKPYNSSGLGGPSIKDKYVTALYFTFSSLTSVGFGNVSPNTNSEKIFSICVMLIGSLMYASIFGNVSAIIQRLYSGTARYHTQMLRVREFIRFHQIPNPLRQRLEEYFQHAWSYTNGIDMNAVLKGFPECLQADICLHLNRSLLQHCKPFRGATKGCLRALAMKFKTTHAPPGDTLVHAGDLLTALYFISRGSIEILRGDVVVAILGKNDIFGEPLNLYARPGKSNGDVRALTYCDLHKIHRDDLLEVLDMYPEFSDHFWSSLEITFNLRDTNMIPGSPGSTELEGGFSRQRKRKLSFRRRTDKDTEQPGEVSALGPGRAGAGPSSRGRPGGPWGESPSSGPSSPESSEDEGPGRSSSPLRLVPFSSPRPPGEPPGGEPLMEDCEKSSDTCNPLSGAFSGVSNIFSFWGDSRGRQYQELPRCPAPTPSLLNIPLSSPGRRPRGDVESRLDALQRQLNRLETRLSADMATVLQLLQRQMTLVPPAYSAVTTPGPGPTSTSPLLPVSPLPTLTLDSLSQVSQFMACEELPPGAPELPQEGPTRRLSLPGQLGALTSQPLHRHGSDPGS
For `COc1cc(NC(=O)C2CCCN(S(=O)(=O)c3cnc[nH]3)C2)cc(OC)c1` (centres unmarked), the “hERG current change (%, negative = inhibition) at 10uM” value is listed as 10.8%. For `Cc1cc(C)n(C(=O)c2ccc([N+](=O)[O-])cc2N)n1`, the “hERG current change (%, negative = inhibition) at 10uM” value came to 19.8%. Turning to `CCOC(=O)c1ccc(NC(=O)Cn2ncc(Cl)c(Cl)c2=O)cc1`, the “hERG current change (%, negative = inhibition) at 10uM” value is listed as -32.2%.

In the case of `CCOC(=O)c1cnc2ccc(C(=O)OC)cc2c1NCCCN1CCOCC1`, the “hERG current change (%, negative = inhibition) at 10uM” value was -60.5%. Regarding `O=C(CN1C(=O)NC2(CCc3ccccc32)C1=O)c1ccc(Br)cc1` (centres unmarked), the “hERG current change (%, negative = inhibition) at 10uM” value was -16.5%. As to `O=C(CN1C(=O)/C(=C2\SC(=S)N(C3CCS(=O)(=O)C3)C2=O)c2ccccc21)Nc1ccccc1` (centres unmarked), the “hERG current change (%, negative = inhibition) at 10uM” value is on record as 3.47%.

As for `Cc1cccc(C)c1NC(=O)CN(C)C(C)C(=O)Nc1ccccc1-c1ccccc1` (centres unmarked), the “hERG current change (%, negative = inhibition) at 10uM” value is -3.77%.

Take `CCn1c(SCC(=O)NCC2CCCO2)nnc1-c1ccccc1` (centres unmarked): the “hERG current change (%, negative = inhibition) at 10uM” value was -12.1%. As to `Cc1ccccc1N1CC(C(=O)Nc2ccc(S(=O)(=O)N3CCCCC3)cc2)CC1=O` (centres unmarked), the “hERG current change (%, negative = inhibition) at 10uM” value is 6.45%. Turning to `CN1CCN(C(=O)c2cc3sccc3n2CC(=O)c2ccccc2)CC1`, the “hERG current change (%, negative = inhibition) at 10uM” value is on record as -27.6%.

With `Cc1cc(C(=O)NNC(=O)C2CCCC2)c(C)o1`, the “hERG current change (%, negative = inhibition) at 10uM” value is recorded as 25%.

Take `CC(=O)Nc1ccc(S(=O)(=O)NCc2cn3ccsc3n2)cc1`: the “hERG current change (%, negative = inhibition) at 10uM” value was -0.617%. As to `CC(NC(=O)COC(=O)/C=C/c1ccc2c(c1)OCO2)c1ccccc1` (centres unmarked), the “hERG current change (%, negative = inhibition) at 10uM” value is -12.4%. With `COc1cccc2c1CCc1c-2nc2ccccc2c1C(=O)O`, the “hERG current change (%, negative = inhibition) at 10uM” value came out at 17.2%. On to `CC(C)c1ccc(N(C(=O)c2ccco2)C(C(=O)NC2CCCC2)c2cccnc2)cc1` (centres unmarked), for which the “hERG current change (%, negative = inhibition) at 10uM” value is -25.3%. As to `O=C1C=C(c2ccc(CO)cc2)C[C@@H](c2ccc3c(c2)OCO3)C1`, the “hERG current change (%, negative = inhibition) at 10uM” value is -44.3%. For `CCOC(=O)c1c(NC(=O)CSc2nnc3c(Cl)cc(Cl)cn23)sc2c1CCC2`, the “hERG current change (%, negative = inhibition) at 10uM” value is listed as -19.2%. As to `Cc1ccc(NC(=O)c2ccc(OC(F)F)cc2)cc1S(=O)(=O)N(C)C`, the “hERG current change (%, negative = inhibition) at 10uM” value is listed as -10.4%. Next, `CCCCCCc1c(C)c2ccc(OCC(=O)N[C@@H](Cc3ccccc3)C(=O)O)cc2oc1=O`: 8.79%; `O=C(CSCc1c(Cl)cccc1Cl)Nc1ccccc1C(=O)N1CCOCC1`: -7.68%; `CCCc1cc(=O)[nH]c(SCC(=O)NC(=O)OCC)n1`: 3.48%. With `CC1=C(C(=O)Nc2ccccc2)C(c2ccncc2)n2nnnc2N1` (centres unmarked), the “hERG current change (%, negative = inhibition) at 10uM” value is reported as -4.41%.

Take `CSc1ccc(S(=O)(=O)N(CC(=O)NN=C2CCN(C)CC2)c2ccc(C)cc2)cc1`: the “hERG current change (%, negative = inhibition) at 10uM” value is -21.3%.

Regarding `COc1ccccc1NC(=S)NNC(=S)Nc1ccc(OC(F)F)cc1`, the “hERG current change (%, negative = inhibition) at 10uM” value turned out to be 25.8%. Consider `O=C(COc1cccc(C(F)(F)F)c1)N1CCN(c2ccccc2O)CC1`, for which the “hERG current change (%, negative = inhibition) at 10uM” value is -10.3%. As to `COc1ccc(/C=N/NC(=O)C(=O)NCC2CCCO2)cc1` (centres unmarked), the “hERG current change (%, negative = inhibition) at 10uM” value is given as -20.4%. `Nc1c(-c2ccccc2)c(CN2CCOCC2)nn1-c1ccccc1`: the “hERG current change (%, negative = inhibition) at 10uM” value is -2.19%. Next, `Cc1ccc(NS(=O)(=O)c2cc3[nH]c(=O)c(=O)[nH]c3cc2C)c(C)c1`: -0.443%. For the molecule `CCOC(=O)N1CCN(C(=O)C2CCN(C(=O)c3cc4sccc4n3CC)CC2)CC1`, the “hERG current change (%, negative = inhibition) at 10uM” value was -28.8%. Consider `Cc1cc(C(=O)Cn2ncc(Cl)c(Cl)c2=O)c(C)n1CC(F)(F)F`, for which the “hERG current change (%, negative = inhibition) at 10uM” value was determined as 7.13%. Consider `Cc1c(C)c2c(OCC(=O)N3CCC(C(=O)NCC(C)C)CC3)cc3c(c2oc1=O)CCC(C)(C)O3`, for which the “hERG current change (%, negative = inhibition) at 10uM” value was -45.2%. Take `CCOC(=O)N1CCC(c2cc(=O)n3[nH]c(-c4ccccc4)cc3n2)CC1`: the “hERG current change (%, negative = inhibition) at 10uM” value stood at 16.5%. Next, `S=C(NCCCN1CCOCC1)NC1CC1`: 9.22%; `COc1ccc2c(c1)CCc1c(C(=O)NC3CCCCC3)noc1-2`: 22.9%. With `COc1ccc(C(CNC(=O)Cc2ccc(Cl)c(Cl)c2)N(C)C)cc1` (centres unmarked), the “hERG current change (%, negative = inhibition) at 10uM” value is listed as -27.1%.

`Cc1nn(-c2ccccc2)c2c1C(c1c(C)[nH]c(C#N)c1C)C(C#N)=C(N)O2` (centres unmarked): the “hERG current change (%, negative = inhibition) at 10uM” value stood at 1.77%.

`CCOC(=O)c1cc(-c2ccccc2)sc1NC(=O)COC(=O)c1cccc(S(N)(=O)=O)c1`: the “hERG current change (%, negative = inhibition) at 10uM” value turned out to be 10.2%. Regarding `CCc1cccc2c(C(=O)COC(=O)c3cnc(C)cn3)c[nH]c12`, the “hERG current change (%, negative = inhibition) at 10uM” value worked out at 2.87%. Next, `CCOC(=O)CC(N)c1ccc2c(c1)OCO2.Cl` (centres unmarked): 7.08%; `CC(CCc1ccccc1)NC(=O)COC(=O)c1ccc(F)cc1.CN(C)C=O` (centres unmarked): 15.8%. Regarding `CCN(CC)c1ccc(C=Nc2ccc(C)cc2)c(O)c1`, the “hERG current change (%, negative = inhibition) at 10uM” value was determined as 13.6%. Consider `CC(C)NS(=O)(=O)c1ccc(OCC(=O)Nc2ccc3c(c2)OCO3)c(Cl)c1`, for which the “hERG current change (%, negative = inhibition) at 10uM” value is -1.68%. Next, `Cc1cccc(-n2c(C)n[nH]c2=S)c1`: 6.43%; `N#CN1CCC(NS(=O)(=O)c2ccc(C(F)(F)F)cc2)C1` (centres unmarked): -5.56%; `O=c1[nH]c(/C=C\c2ccc(O)cc2)nc(O)c1[N+](=O)[O-]`: 6.29%.

`CC(O)C(NS(=O)(=O)c1ccc(Cl)cc1)C(=O)OCC(=O)Nc1cccnc1Cl` (centres unmarked): the “hERG current change (%, negative = inhibition) at 10uM” value is listed as 11.2%. For `COc1ccc(NS(=O)(=O)c2c(F)cc(F)c(Cl)c2F)cc1S(=O)(=O)N1CCCCC1`, the “hERG current change (%, negative = inhibition) at 10uM” value was -12.1%. Next, `CCOC(=O)/C(C#N)=N\Nc1ccc(S(=O)(=O)Nc2nc(C)cc(C)n2)cc1`: 9.21%; `CCOc1ccccc1C1CC(=O)NC(SCC)=C1C#N` (centres unmarked): 2.15%; `COc1ccc(NC(=O)c2sccc2C)cn1`: 3.9%. For the molecule `Nc1nc(C(F)(F)F)cc(=O)[nH]1`, the “hERG current change (%, negative = inhibition) at 10uM” value turned out to be 11%.

For `O=c1[nH]ncc2c3ccccc3n(Cc3cccc(Cl)c3)c12`, the “hERG current change (%, negative = inhibition) at 10uM” value is given as 24.3%. In the case of `O=C(O)C1CC(O)CN1S(=O)(=O)c1ccc2ccccc2c1` (centres unmarked), the “hERG current change (%, negative = inhibition) at 10uM” value was 2.25%.

On to `Cc1ccc(C(=O)N2CCN(Cc3ccc4c(c3)OCO4)CC2)cc1[N+](=O)[O-]`, for which the “hERG current change (%, negative = inhibition) at 10uM” value was -22.7%. `NS(=O)(=O)c1ccc(CCNC(=O)C2CCN(S(=O)(=O)c3ccc(Br)s3)CC2)cc1`: the “hERG current change (%, negative = inhibition) at 10uM” value is -2.76%. For `CCOC(=O)c1c(N)n(CCN2CCOCC2)c2nc3ccccc3nc12`, the “hERG current change (%, negative = inhibition) at 10uM” value was -39.2%.
